# Test results published in the supplement of paper PMC8728848.
# This is one part of the list.
# B1: Flo11 (Saccharomyces cerevisiae), Q1H8S8 (protein)
# chain: MGSSHHHHHHSSGLVPRGSHMFPTALVPRGSSEGTSCNSIVNGCPNLDFNWHMDQQNIMQYTLDVTSVSWVQDNTYQITIHVKGKENIDLKYLWSLKIIGVTGPKGTVQLYGYNENTYLIDNPTDFTATFEVYATQDVNSCQVWMPNFQIQFEYLQGSAAQYASSWQWGTTSFDLSTGCNNYDNQGHSQTDFPGFYWNIDCDNNCGGTKSS
# Tests used:
# Assay in all cases: glycan array binding signal (z-score within array); higher = stronger binding
# Conditions in all cases: glycan notation: IUPAC condensed, linker removed
# [1] = biological target: Gal(b1-4)GlcNAc(b1-2)[Gal(b1-4)GlcNAc(b1-4)]Man(a1-3)[Gal(b1-4)GlcNAc(b1-2)Man(a1-6)]Man(b1-4)GlcNAc(b1-4)GlcNAc
# Procedure, shortened: (§1)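 Glycan array data came from 3228 arrays in the Consortium for Functional Glycomics database, and only arrays with an available protein sequence were kept. Glycan names were put into IUPAC-condensed notation, and columns mapping to the same glycan were averaged. The binding signal is a within-array Z-score, averaged across arrays of one protein sequence run at different concentrations or buffers and across linkers. A negative Z-score can be read as non-binding.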
# [2] = biological target: Gal(b1-4)GlcNAc(b1-3)Gal(b1-3)GlcNAc
# Procedure, shortened: as §1
# [3] = biological target: Gal(b1-4)GlcNAc(b1-3)Gal(b1-4)Glc
# Procedure, shortened: as §1
# [4] = biological target: Gal(b1-4)GlcNAc(b1-3)Gal(b1-4)GlcNAc
# Procedure, shortened: as §1
# [5] = biological target: Gal(b1-4)GlcNAc(b1-3)Gal(b1-4)GlcNAc(b1-3)Gal(b1-4)GlcNAc
# Procedure, shortened: as §1
# [6] = biological target: Gal(b1-4)GlcNAc(b1-3)Gal(b1-4)[Fuc(a1-3)]GlcNAc(b1-3)Gal(b1-4)[Fuc(a1-3)]GlcNAc
# Procedure, shortened: as §1
# [7] = biological target: Gal(b1-4)GlcNAc(b1-3)GalNAc
# Procedure, shortened: as §1
# [8] = biological target: Gal(b1-4)GlcNAc(b1-3)[Gal(b1-4)GlcNAc(b1-6)]Gal(b1-4)GlcNAc
# Procedure, shortened: as §1
# [9] = biological target: Gal(b1-4)GlcNAc(b1-3)[GlcNAc(b1-6)]Gal(b1-4)GlcNAc
# Procedure, shortened: as §1
# [10] = biological target: Gal(b1-4)GlcNAc(b1-6)Gal(b1-4)GlcNAc
# Procedure, shortened: as §1
# [11] = biological target: Gal(b1-4)GlcNAc(b1-6)Gal(b1-4)GlcNAc(b1-6)GalNAc
# Procedure, shortened: as §1
# [12] = biological target: Gal(b1-4)GlcNAc(b1-6)GalNAc
# Procedure, shortened: as §1
# [13] = biological target: Gal(b1-4)GlcNAc(b1-6)[Gal(b1-3)]GalNAc
# Procedure, shortened: as §1
# [14] = biological target: Gal3S(b1-3)GalNAc
# Procedure, shortened: as §1
# [15] = biological target: Gal3S(b1-3)GlcNAc
# Procedure, shortened: as §1
# [16] = biological target: Gal3S(b1-3)[Fuc(a1-4)]GlcNAc
# Procedure, shortened: as §1
# [17] = biological target: Gal3S(b1-4)Glc
# Procedure, shortened: as §1
# [18] = biological target: Gal3S(b1-4)Glc6S
# Procedure, shortened: as §1
# [19] = biological target: Gal3S(b1-4)GlcNAc
# Procedure, shortened: as §1
# [20] = biological target: Gal3S(b1-4)GlcNAc6S
# Procedure, shortened: as §1
# [21] = biological target: Gal3S(b1-4)[Fuc(a1-3)]Glc
# Procedure, shortened: as §1
# [22] = biological target: Gal3S4S(b1-4)GlcNAc
# Procedure, shortened: as §1
# [23] = biological target: Gal3S6S(b1-4)GlcNAc
# Procedure, shortened: as §1
# [24] = biological target: Gal3S6S(b1-4)GlcNAc6S
# Procedure, shortened: as §1
# [25] = biological target: Gal4S(b1-4)GlcNAc
# Procedure, shortened: as §1
# [26] = biological target: Gal4S6S(b1-4)GlcNAc
# Procedure, shortened: as §1
# [27] = biological target: Gal6S(b1-4)Glc
# Procedure, shortened: as §1
# [28] = biological target: Gal6S(b1-4)Glc6S
# Procedure, shortened: as §1
# [29] = biological target: Gal6S(b1-4)GlcNAc
# Procedure, shortened: as §1
# [30] = biological target: Gal6S(b1-4)GlcNAc6S
# Procedure, shortened: as §1
# [31] = biological target: GalNAc(a1-3)Gal
# Procedure, shortened: as §1
# [32] = biological target: GalNAc(a1-3)GalNAc
# Procedure, shortened: as §1
# [33] = biological target: GalNAc(b1-3)Gal
# Procedure, shortened: as §1
# [34] = biological target: GalNAc(b1-3)Gal(a1-4)Gal(b1-4)GlcNAc
# Procedure, shortened: as §1
# [35] = biological target: GalNAc(b1-3)Gal(a1-4)Gal(b1-4)GlcNAc(b1-3)Gal(b1-4)Glc
# Procedure, shortened: as §1
# [36] = biological target: GalNAc(b1-3)GalNAc
# Procedure, shortened: as §1
# [37] = biological target: GalNAc(b1-4)GlcNAc
# Procedure, shortened: as §1
# [38] = biological target: GalNAc(b1-4)GlcNAc(b1-2)Man(a1-3)[GalNAc(b1-4)GlcNAc(b1-2)Man(a1-6)]Man(b1-4)GlcNAc(b1-4)GlcNAc
# Procedure, shortened: as §1
binder,measurement,setting,value
B1,glycan array binding signal (z-score),[1],-0.449
same,glycan array binding signal (z-score),[2],1.69
same,glycan array binding signal (z-score),[3],2.41
same,glycan array binding signal (z-score),[4],2.11
same,glycan array binding signal (z-score),[5],2.33
same,glycan array binding signal (z-score),[6],0.593
same,glycan array binding signal (z-score),[7],1.49
same,glycan array binding signal (z-score),[8],-0.507
same,glycan array binding signal (z-score),[9],-0.409
same,glycan array binding signal (z-score),[10],-0.501
same,glycan array binding signal (z-score),[11],-0.488
same,glycan array binding signal (z-score),[12],-0.318
same,glycan array binding signal (z-score),[13],-0.482
same,glycan array binding signal (z-score),[14],2.02
same,glycan array binding signal (z-score),[15],-0.496
same,glycan array binding signal (z-score),[16],-0.502
same,glycan array binding signal (z-score),[17],-0.501
same,glycan array binding signal (z-score),[18],-0.501
same,glycan array binding signal (z-score),[19],-0.499
same,glycan array binding signal (z-score),[20],-0.504
same,glycan array binding signal (z-score),[21],0.304
same,glycan array binding signal (z-score),[22],-0.499
same,glycan array binding signal (z-score),[23],-0.496
same,glycan array binding signal (z-score),[24],-0.494
same,glycan array binding signal (z-score),[25],-0.5
same,glycan array binding signal (z-score),[26],-0.489
same,glycan array binding signal (z-score),[27],-0.498
same,glycan array binding signal (z-score),[28],-0.491
same,glycan array binding signal (z-score),[29],-0.49
same,glycan array binding signal (z-score),[30],-0.459
same,glycan array binding signal (z-score),[31],-0.501
same,glycan array binding signal (z-score),[32],-0.487
same,glycan array binding signal (z-score),[33],3.63
same,glycan array binding signal (z-score),[34],4.27
same,glycan array binding signal (z-score),[35],2.75
same,glycan array binding signal (z-score),[36],1.53
same,glycan array binding signal (z-score),[37],-0.39
same,glycan array binding signal (z-score),[38],0.623
